Residue numbers refer to the chain shown, from its start. The list shows a part of the results.
T1: RBFOX1 RRM RbFoxmut (Fox-RRM*) (Homo sapiens, UniProt Q9NWB1 109-208, R118D;E147R;N151S;E152T)
T1 sequence: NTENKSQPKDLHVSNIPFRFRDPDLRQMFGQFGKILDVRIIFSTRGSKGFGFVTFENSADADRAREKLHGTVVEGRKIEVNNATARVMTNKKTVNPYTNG

B1: CACAACC (DNA:RNA)
RNA: GGGAGACCGGAAUUCAGAUUGUCCCACAACCUUAAAUCCCGUCGUAGCCACCA
DNA 1: CAATCTGAATTCCGGTCTCCC
DNA 2: TGGTGGCTACGACGGGATT
B2: UCAAGGG (DNA:RNA)
RNA: B1 RNA with C25U, A26C, C27A, A29G, C30G, C31G
DNA 1: CAATCTGAATTCCGGTCTCCC
DNA 2: TGGTGGCTACGACGGGATT
B3: GUGGUCU (DNA:RNA)
RNA: B1 RNA with C25G, A26U, C27G, A28G, A29U, C31U
DNA 1: CAATCTGAATTCCGGTCTCCC
DNA 2: TGGTGGCTACGACGGGATT
B4: CUGCGCU (DNA:RNA)
RNA: B1 RNA with A26U, C27G, A28C, A29G, C31U
DNA 1: CAATCTGAATTCCGGTCTCCC
DNA 2: TGGTGGCTACGACGGGATT
B5: GGUUUGC (DNA:RNA)
RNA: B1 RNA with C25G, A26G, C27U, A28U, A29U, C30G
DNA 1: CAATCTGAATTCCGGTCTCCC
DNA 2: TGGTGGCTACGACGGGATT
B6: AAGGACU (DNA:RNA)
RNA: B1 RNA with C25A, C27G, A28G, C31U
DNA 1: CAATCTGAATTCCGGTCTCCC
DNA 2: TGGTGGCTACGACGGGATT
B7: GUUUGGG (DNA:RNA)
RNA: GGGAGACCGGAAUUCAGAUUGUCCGUUUGGGUUAAAUCCCGUCGUAGCCACCA
DNA 1: CAATCTGAATTCCGGTCTCCC
DNA 2: TGGTGGCTACGACGGGATT
B8: UGGCGAU (DNA:RNA)
RNA: B7 RNA with G25U, U26G, U27G, U28C, G30A, G31U
DNA 1: CAATCTGAATTCCGGTCTCCC
DNA 2: TGGTGGCTACGACGGGATT
B9: GCCCCCC (DNA:RNA)
RNA: B1 RNA with C25G, A26C, A28C, A29C
DNA 1: CAATCTGAATTCCGGTCTCCC
DNA 2: TGGTGGCTACGACGGGATT
B10: AAUAACG (DNA:RNA)
RNA: B1 RNA with C25A, C27U, C31G
DNA 1: CAATCTGAATTCCGGTCTCCC
DNA 2: TGGTGGCTACGACGGGATT
B11: UGAGUGC (DNA:RNA)
RNA: B1 RNA with C25U, A26G, C27A, A28G, A29U, C30G
DNA 1: CAATCTGAATTCCGGTCTCCC
DNA 2: TGGTGGCTACGACGGGATT
B12: UCCGUUA (DNA:RNA)
RNA: B1 RNA with C25U, A26C, A28G, A29U, C30U, C31A
DNA 1: CAATCTGAATTCCGGTCTCCC
DNA 2: TGGTGGCTACGACGGGATT
B13: GUACAGU (DNA:RNA)
RNA: B7 RNA with U27A, U28C, G29A, G31U
DNA 1: CAATCTGAATTCCGGTCTCCC
DNA 2: TGGTGGCTACGACGGGATT
B14: CCAGACU (DNA:RNA)
RNA: B1 RNA with A26C, C27A, A28G, C31U
DNA 1: CAATCTGAATTCCGGTCTCCC
DNA 2: TGGTGGCTACGACGGGATT
B15: UGAUCUG (DNA:RNA)
RNA: B7 RNA with G25U, U26G, U27A, G29C, G30U
DNA 1: CAATCTGAATTCCGGTCTCCC
DNA 2: TGGTGGCTACGACGGGATT
B16: GCAAGCU (DNA:RNA)
RNA: B1 RNA with C25G, A26C, C27A, A29G, C31U
DNA 1: CAATCTGAATTCCGGTCTCCC
DNA 2: TGGTGGCTACGACGGGATT
B17: AGAUUGA (DNA:RNA)
RNA: B7 RNA with G25A, U26G, U27A, G29U, G31A
DNA 1: CAATCTGAATTCCGGTCTCCC
DNA 2: TGGTGGCTACGACGGGATT
B18: GAGGAAG (DNA:RNA)
RNA: B1 RNA with C25G, C27G, A28G, C30A, C31G
DNA 1: CAATCTGAATTCCGGTCTCCC
DNA 2: TGGTGGCTACGACGGGATT
B19: AAAGUAG (DNA:RNA)
RNA: B1 RNA with C25A, C27A, A28G, A29U, C30A, C31G
DNA 1: CAATCTGAATTCCGGTCTCCC
DNA 2: TGGTGGCTACGACGGGATT
B20: GGCUUUA (DNA:RNA)
RNA: B7 RNA with U26G, U27C, G29U, G30U, G31A
DNA 1: CAATCTGAATTCCGGTCTCCC
DNA 2: TGGTGGCTACGACGGGATT
B21: GGAUCUU (DNA:RNA)
RNA: B7 RNA with U26G, U27A, G29C, G30U, G31U
DNA 1: CAATCTGAATTCCGGTCTCCC
DNA 2: TGGTGGCTACGACGGGATT
B22: GCCAGAG (DNA:RNA)
RNA: B7 RNA with U26C, U27C, U28A, G30A
DNA 1: CAATCTGAATTCCGGTCTCCC
DNA 2: TGGTGGCTACGACGGGATT
B23: UUUACAG (DNA:RNA)
RNA: B7 RNA with G25U, U28A, G29C, G30A
DNA 1: CAATCTGAATTCCGGTCTCCC
DNA 2: TGGTGGCTACGACGGGATT
B24: AAGUAAG (DNA:RNA)
RNA: B1 RNA with C25A, C27G, A28U, C30A, C31G
DNA 1: CAATCTGAATTCCGGTCTCCC
DNA 2: TGGTGGCTACGACGGGATT
B25: AACCUCC (DNA:RNA)
RNA: B1 RNA with C25A, A28C, A29U
DNA 1: CAATCTGAATTCCGGTCTCCC
DNA 2: TGGTGGCTACGACGGGATT
B26: AGGUUAU (DNA:RNA)
RNA: B7 RNA with G25A, U26G, U27G, G29U, G30A, G31U
DNA 1: CAATCTGAATTCCGGTCTCCC
DNA 2: TGGTGGCTACGACGGGATT
B27: UUAGAGU (DNA:RNA)
RNA: B7 RNA with G25U, U27A, U28G, G29A, G31U
DNA 1: CAATCTGAATTCCGGTCTCCC
DNA 2: TGGTGGCTACGACGGGATT
B28: UCCGGGC (DNA:RNA)
RNA: B1 RNA with C25U, A26C, A28G, A29G, C30G
DNA 1: CAATCTGAATTCCGGTCTCCC
DNA 2: TGGTGGCTACGACGGGATT
B29: AAAAAUU (DNA:RNA)
RNA: B1 RNA with C25A, C27A, C30U, C31U
DNA 1: CAATCTGAATTCCGGTCTCCC
DNA 2: TGGTGGCTACGACGGGATT
B30: AUAAUUU (DNA:RNA)
RNA: B1 RNA with C25A, A26U, C27A, A29U, C30U, C31U
DNA 1: CAATCTGAATTCCGGTCTCCC
DNA 2: TGGTGGCTACGACGGGATT
B31: CGAUUGG (DNA:RNA)
RNA: B7 RNA with G25C, U26G, U27A, G29U
DNA 1: CAATCTGAATTCCGGTCTCCC
DNA 2: TGGTGGCTACGACGGGATT

molecular target: T1, RBFOX1 RRM RbFoxmut (Fox-RRM*); experiment: EMSA; HiTS-Eq, 1 nM pool, 10 min; buffer printed only for the single-RNA assays: 10 mM Tris pH 7.5, 150 mM NaCl, 3.4 mM EDTA, 0.001% NP-40, 30 C; details: tags: His6 N-terminal (pET28a); label: 5' 32P
How it was run: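 Relative association constants, normalised to the cognate motif, were derived by comparing read counts of each RNA species with those of the control reaction. The RNA sequenced was the free fraction, separated by 8% native PAGE after a 10 min equilibration in 50 µL of 1 nM 5′-radiolabelled RNA (7 randomized nucleotides) with increasing concentrations of purified wild-type or mutant RbFox RRM.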

First: B1
Second: B2
The binding signal of the first is lower: 0.0569 KA relative to UGCAUGU for the first, 0.08 KA relative to UGCAUGU for the second.

First: B3
Second: B4
The binding signal of the first is higher: 0.115 KA relative to UGCAUGU for the first, 0.103 KA relative to UGCAUGU for the second.

First: B5
Second: B6
The binding signal of the first is higher: 0.199 KA relative to UGCAUGU for the first, 0.0566 KA relative to UGCAUGU for the second.

Compared with B7, B8 is lower in binding signal: 0.122 KA relative to UGCAUGU for the first, 0.0717 KA relative to UGCAUGU for the second.

First: B9
Second: B10
The binding signal of the first is lower: 0.0323 KA relative to UGCAUGU for the first, 0.0895 KA relative to UGCAUGU for the second.

First: B11
Second: B12
The binding signal of the first is higher: 0.112 KA relative to UGCAUGU for the first, 0.0875 KA relative to UGCAUGU for the second.

First: B13
Second: B14
The binding signal of the first is higher: 0.0854 KA relative to UGCAUGU for the first, 0.0631 KA relative to UGCAUGU for the second.

Compared with B15, B16 is lower in binding signal: 0.0664 KA relative to UGCAUGU for the first, 0.0581 KA relative to UGCAUGU for the second.

Compared with B17, B18 is lower in binding signal: 0.117 KA relative to UGCAUGU for the first, 0.0941 KA relative to UGCAUGU for the second.

Compared with B19, B20 is lower in binding signal: 0.136 KA relative to UGCAUGU for the first, 0.0865 KA relative to UGCAUGU for the second.

First: B21
Second: B22
The binding signal of the first is lower: 0.104 KA relative to UGCAUGU for the first, 0.114 KA relative to UGCAUGU for the second.

Compared with B23, B24 is higher in binding signal: 0.0734 KA relative to UGCAUGU for the first, 0.119 KA relative to UGCAUGU for the second.

First: B25
Second: B26
The binding signal of the first is lower: 0.0508 KA relative to UGCAUGU for the first, 0.102 KA relative to UGCAUGU for the second.

First: B27
Second: B28
The binding signal of the first is higher: 0.151 KA relative to UGCAUGU for the first, 0.045 KA relative to UGCAUGU for the second.

Compared with B29, B30 is higher in binding signal: 0.0756 KA relative to UGCAUGU for the first, 0.103 KA relative to UGCAUGU for the second.

With B31 the binding signal was 0.143 KA relative to UGCAUGU.

From paper PMC9911399, “Two distinct binding modes provide the RNA-binding protein RbFox with extraordinary sequence specificity”
